Experimental findings from article PMC5515408 are described below.

The list shows a part of the results. At the low end of the ranking the order means little.

The subject of this assay is MYC (p64) + MAX (p21), in MYC:MAX. The assay can be described thus: protein-binding microarray (anti-MAX antibody). The following applies: PBM: 15 mM Tris-HCl pH 7.5, 100 mM KCl, 0.075% NP40, 7.5 mM beta-mercaptoethanol, 375 ng/ul BSA, 8 ng/ul poly(dA-dT):(dA-dT), 550 ng complex, 60 min, room …; high values mean tight binding; double strand, one strand shown; sequences stand for … in CCGGC…TTAATAGCTAAGATTACTATATCGACG
TGAATTCCCGTA: the binding signal (log2 normalized fluorescence) was 0.003.
As for TGAGCATACGTA, the binding signal (log2 normalized fluorescence) was determined as 0.288.
Regarding AGGGTGTACTGG, the binding signal (log2 normalized fluorescence) amounted to 0.215.
With TGAGACATCGTA the figure was 0.0468; with TGATTTTGGGTA, -0.124.
With TGATGAGAAGTA the figure was -0.259.
As for TGAGTTCGTGTA, the binding signal (log2 normalized fluorescence) was found to be 0.152.
On to TGAGGAATAGTA, for which the binding signal (log2 normalized fluorescence) was -0.22.
Next, TGAATCGGCGTA: -0.0713; TGATGCTAAGTA: -0.0239.
With TGAGGACCAGTA the figure was 0.0701; with TGAGGCATGGTA, 0.43.
Take TGAAGTGCCGTA: the binding signal (log2 normalized fluorescence) is 0.122.
Next, TGAAGACTAGTA: -0.0517; TGACGCCCCGTA: 0.102.
For the sequence TGACGTCAAGTA, the binding signal (log2 normalized fluorescence) is -0.0202.
Next, TGAGGGACAGTA: 0.0608; TGACTTGGAGTA: -0.083; TGAATTTATGTA: -0.0326.
With TGAGAGCCGGTA the figure was -0.221; with TGTGCCGTGGTA, 0.191; with TGAGAGCGCGTA, 0.288.
Next, TGACGCGTGGTG: 0.614; TGACCCGGGGTA: 0.268; TTACACGTGATA: 0.75.
Turning to TGAAAACCGGTA, the binding signal (log2 normalized fluorescence) is 0.185.
With CCCCGTGGTTAC the figure was 0.418; with TGAAACCTGGTA, 0.241.
With GGATACGTGGTA the figure was 0.475.
With TGGCAACTGGTA the figure was 0.0475; with TGAAACCGTGTA, 0.331.
For TGAGTCTGGGTA, the binding signal (log2 normalized fluorescence) is -0.221.
Next, TGACATGGTGTA: 0.337; TGAGTGTGCGTA: 0.13; TGACTGTTTGTA: -0.0198.
With TGAAGGACAGTA the figure was -0.084.
On to TGAATTACCGTA, for which the binding signal (log2 normalized fluorescence) was found to be 0.041.
Next, TGACATAGGGTA: 0.203; TCCTACGTGGTA: 0.54.
Consider TGATGAAGCGTA, for which the binding signal (log2 normalized fluorescence) is -0.0174.
Take TGAGAACGGGTA: the binding signal (log2 normalized fluorescence) is -0.00337.
With TGAGACTTTGTA the figure was 0.000456.
On to TGATGGGCGGTA, for which the binding signal (log2 normalized fluorescence) is 0.055.
In the case of TGACATCTCGTA, the binding signal (log2 normalized fluorescence) is 0.221.
Next, TGAGTTCATGTA: 0.228; TGACTTATAGTA: 0.0293; TGACACAAGGTA: 0.501.
With TGATCTAGGGTA the figure was -0.27; with TGAGAGTGCGTA, 0.111; with TGACCTCTTGTA, 0.189.
Next, TGAAGTCCGGTA: -0.0794.
With TGACACGTTTCA, the binding signal (log2 normalized fluorescence) worked out at 0.667.
Next, TGATCGCTTGTA: -0.00084; TGAATCGGTGTA: -0.0501.
Next, TGACGTTGAGTA: 0.0225; TGACCCAGAGTA: -0.0825; TGATGTTTCGTA: -0.0689.
Next, TGATGGAGGGTA: 0.167; TGACGTGGAGTA: 0.368; TGACCTAGAGTA: -0.0525.
In the case of TGAGGTAAAGTA, the binding signal (log2 normalized fluorescence) is -0.193.
With TGAATGCGTGTA the figure was 0.372; with TGAAGACTGGTA, 0.0776; with TGATACTGCGTA, 0.0751.
As for TGAATACCAGTA, the binding signal (log2 normalized fluorescence) was -0.12.
With AGACACGGGGTA the figure was 0.561; with TGACTTCTAGTA, -0.0933.
Next, TGAGCGGTGGTA: 0.141; TGACTAATGGTA: 0.185; TGAACGCCGGTA: 0.0499.
Next, TGACACGAAATA: 0.123; TGAGCTCGAGTA: 0.169; TGAACCACGGTA: 0.424.
With TGACGGTTGGTA, the binding signal (log2 normalized fluorescence) stood at 0.0823.
Next, TGAATGCTCGTA: 0.148.
Turning to TGATATGGGGTA, the binding signal (log2 normalized fluorescence) is 0.0454.
With TGAAAGCCAGTA the figure was -0.0231; with TGATGGTCTGTA, 0.179; with TGATGGGACGTA, 0.0887.
Next, TGAGACGCGGTT: 0.131; TGATTGCTTGTA: -0.0473; TAAGACGTGGTA: 0.411.
Next, TGAGAAGCTGTA: -0.115; TGAGGTCCTGTA: 0.0181; TGAGATTTTGTA: -0.367.
Consider TGATGGTAAGTA, for which the binding signal (log2 normalized fluorescence) is 0.122.
Next, TGATTATCGGTA: -0.14; TGATTAGGTGTA: -0.194.
As for TGGCACTTTGTA, the binding signal (log2 normalized fluorescence) was 0.0131.
With TGAATAAAGGTA the figure was -0.0629; with TGAATTCTAGTA, -0.092; with TGAGCAGCAGTA, 0.0402.
As for TTAAAAGTGGTA, the binding signal (log2 normalized fluorescence) worked out at 0.166.
Turning to TGATACGCCGTA, the binding signal (log2 normalized fluorescence) amounted to 0.0846.
As for TGACTTCCTGTA, the binding signal (log2 normalized fluorescence) came to 0.0222.
Turning to TGACCGCGCGTA, the binding signal (log2 normalized fluorescence) worked out at 0.489.
With TGACGATGCGTA the figure was 0.282; with TGATGGCACGTA, 0.319.
Next, TGAACCCCCGTA: 0.133.
Next, TGATAACGAGTA: 0.261.
As for CCGCTTAATTTC, the binding signal (log2 normalized fluorescence) is -0.0443.
In the case of TGACGAGTGGTA, the binding signal (log2 normalized fluorescence) was found to be 0.147.
With TGAGGCCCGGTA the figure was -0.103; with TGAACCACAGTA, 0.183.
With TGATACTGTGTA the figure was 0.122; with TGATAATGAGTA, -0.000498; with TGATTGTTGGTA, -0.114.
TGATCTTCTGTA: the binding signal (log2 normalized fluorescence) was -0.129.
Next, TGACTATTAGTA: -0.115; TGAAACGTTGTA: 0.435; TCGGACGTGGTA: 0.304.
With TGACGACTAGTA the figure was 0.163; with TGAACCGTGGTC, 0.295.
Next, AAGGGTTTTCTA: 0.201; TGACATAGAGTA: 0.00694; CTTACCACCCAG: 0.395.
For the sequence TGATTAGATGTA, the binding signal (log2 normalized fluorescence) is -0.28.
Next, TGACCCAGCGTA: -0.0202; TGATAGCCCGTA: -0.0286.
With TGAAAGAGGGTA the figure was 0.053; with TGAACAGGGGTA, 0.32; with TGACTACCAGTA, 0.0544.
Next, TGACACGTGATT: 0.626; TGATTTGGTGTA: -0.055; CGTTTAGCCGTC: -0.449.
Regarding TGAAGGCTGGTA, the binding signal (log2 normalized fluorescence) is -0.146.
With TGATCGTCCGTA the figure was -0.0196; with TGAGAACATGTA, 0.438; with TGAGGATCCGTA, -0.1.
With TGATTCTTGGTA the figure was -0.188; with TGAGTCAACGTA, 0.0142; with TGATAATGTGTA, 0.181.
With TGAATTATAGTA the figure was -0.0472; with TGATTGGAGGTA, -0.0145; with TGAGGACTCGTA, 0.0239.
For TGATGCCAAGTA, the binding signal (log2 normalized fluorescence) is -0.0101.
On to TGACGCGTTGTA, for which the binding signal (log2 normalized fluorescence) amounted to 0.37.
